Measured values taken from PubChem BioAssay AID588689 (Southern Research Specialized Biocontainment Screening …, 2011).
Among all 340,000 compounds or so, about 1,000 (0.29%) were called active. No stated cut-off is given here; in the data, inconclusive means inhibition above about 29% without an active follow-up result; inactive means below that. Inconclusive results, whose numbers are uncertain, are shown.

biological target: Genome polyprotein (Dengue virus type 2 (strain 16681-PDK53)) (UniProt P29991); test: Dengue-2 NS5 methyltransferase inhibitors, primary screen, biochemical, confirmation dose response (AID 588689); conditions: Dengue-2 NS5 methyltransferase capping enzyme assay, at 25 µM, stronger effect = higher value
Chain of UniProt P29991 (P29991 whole entry, looked up): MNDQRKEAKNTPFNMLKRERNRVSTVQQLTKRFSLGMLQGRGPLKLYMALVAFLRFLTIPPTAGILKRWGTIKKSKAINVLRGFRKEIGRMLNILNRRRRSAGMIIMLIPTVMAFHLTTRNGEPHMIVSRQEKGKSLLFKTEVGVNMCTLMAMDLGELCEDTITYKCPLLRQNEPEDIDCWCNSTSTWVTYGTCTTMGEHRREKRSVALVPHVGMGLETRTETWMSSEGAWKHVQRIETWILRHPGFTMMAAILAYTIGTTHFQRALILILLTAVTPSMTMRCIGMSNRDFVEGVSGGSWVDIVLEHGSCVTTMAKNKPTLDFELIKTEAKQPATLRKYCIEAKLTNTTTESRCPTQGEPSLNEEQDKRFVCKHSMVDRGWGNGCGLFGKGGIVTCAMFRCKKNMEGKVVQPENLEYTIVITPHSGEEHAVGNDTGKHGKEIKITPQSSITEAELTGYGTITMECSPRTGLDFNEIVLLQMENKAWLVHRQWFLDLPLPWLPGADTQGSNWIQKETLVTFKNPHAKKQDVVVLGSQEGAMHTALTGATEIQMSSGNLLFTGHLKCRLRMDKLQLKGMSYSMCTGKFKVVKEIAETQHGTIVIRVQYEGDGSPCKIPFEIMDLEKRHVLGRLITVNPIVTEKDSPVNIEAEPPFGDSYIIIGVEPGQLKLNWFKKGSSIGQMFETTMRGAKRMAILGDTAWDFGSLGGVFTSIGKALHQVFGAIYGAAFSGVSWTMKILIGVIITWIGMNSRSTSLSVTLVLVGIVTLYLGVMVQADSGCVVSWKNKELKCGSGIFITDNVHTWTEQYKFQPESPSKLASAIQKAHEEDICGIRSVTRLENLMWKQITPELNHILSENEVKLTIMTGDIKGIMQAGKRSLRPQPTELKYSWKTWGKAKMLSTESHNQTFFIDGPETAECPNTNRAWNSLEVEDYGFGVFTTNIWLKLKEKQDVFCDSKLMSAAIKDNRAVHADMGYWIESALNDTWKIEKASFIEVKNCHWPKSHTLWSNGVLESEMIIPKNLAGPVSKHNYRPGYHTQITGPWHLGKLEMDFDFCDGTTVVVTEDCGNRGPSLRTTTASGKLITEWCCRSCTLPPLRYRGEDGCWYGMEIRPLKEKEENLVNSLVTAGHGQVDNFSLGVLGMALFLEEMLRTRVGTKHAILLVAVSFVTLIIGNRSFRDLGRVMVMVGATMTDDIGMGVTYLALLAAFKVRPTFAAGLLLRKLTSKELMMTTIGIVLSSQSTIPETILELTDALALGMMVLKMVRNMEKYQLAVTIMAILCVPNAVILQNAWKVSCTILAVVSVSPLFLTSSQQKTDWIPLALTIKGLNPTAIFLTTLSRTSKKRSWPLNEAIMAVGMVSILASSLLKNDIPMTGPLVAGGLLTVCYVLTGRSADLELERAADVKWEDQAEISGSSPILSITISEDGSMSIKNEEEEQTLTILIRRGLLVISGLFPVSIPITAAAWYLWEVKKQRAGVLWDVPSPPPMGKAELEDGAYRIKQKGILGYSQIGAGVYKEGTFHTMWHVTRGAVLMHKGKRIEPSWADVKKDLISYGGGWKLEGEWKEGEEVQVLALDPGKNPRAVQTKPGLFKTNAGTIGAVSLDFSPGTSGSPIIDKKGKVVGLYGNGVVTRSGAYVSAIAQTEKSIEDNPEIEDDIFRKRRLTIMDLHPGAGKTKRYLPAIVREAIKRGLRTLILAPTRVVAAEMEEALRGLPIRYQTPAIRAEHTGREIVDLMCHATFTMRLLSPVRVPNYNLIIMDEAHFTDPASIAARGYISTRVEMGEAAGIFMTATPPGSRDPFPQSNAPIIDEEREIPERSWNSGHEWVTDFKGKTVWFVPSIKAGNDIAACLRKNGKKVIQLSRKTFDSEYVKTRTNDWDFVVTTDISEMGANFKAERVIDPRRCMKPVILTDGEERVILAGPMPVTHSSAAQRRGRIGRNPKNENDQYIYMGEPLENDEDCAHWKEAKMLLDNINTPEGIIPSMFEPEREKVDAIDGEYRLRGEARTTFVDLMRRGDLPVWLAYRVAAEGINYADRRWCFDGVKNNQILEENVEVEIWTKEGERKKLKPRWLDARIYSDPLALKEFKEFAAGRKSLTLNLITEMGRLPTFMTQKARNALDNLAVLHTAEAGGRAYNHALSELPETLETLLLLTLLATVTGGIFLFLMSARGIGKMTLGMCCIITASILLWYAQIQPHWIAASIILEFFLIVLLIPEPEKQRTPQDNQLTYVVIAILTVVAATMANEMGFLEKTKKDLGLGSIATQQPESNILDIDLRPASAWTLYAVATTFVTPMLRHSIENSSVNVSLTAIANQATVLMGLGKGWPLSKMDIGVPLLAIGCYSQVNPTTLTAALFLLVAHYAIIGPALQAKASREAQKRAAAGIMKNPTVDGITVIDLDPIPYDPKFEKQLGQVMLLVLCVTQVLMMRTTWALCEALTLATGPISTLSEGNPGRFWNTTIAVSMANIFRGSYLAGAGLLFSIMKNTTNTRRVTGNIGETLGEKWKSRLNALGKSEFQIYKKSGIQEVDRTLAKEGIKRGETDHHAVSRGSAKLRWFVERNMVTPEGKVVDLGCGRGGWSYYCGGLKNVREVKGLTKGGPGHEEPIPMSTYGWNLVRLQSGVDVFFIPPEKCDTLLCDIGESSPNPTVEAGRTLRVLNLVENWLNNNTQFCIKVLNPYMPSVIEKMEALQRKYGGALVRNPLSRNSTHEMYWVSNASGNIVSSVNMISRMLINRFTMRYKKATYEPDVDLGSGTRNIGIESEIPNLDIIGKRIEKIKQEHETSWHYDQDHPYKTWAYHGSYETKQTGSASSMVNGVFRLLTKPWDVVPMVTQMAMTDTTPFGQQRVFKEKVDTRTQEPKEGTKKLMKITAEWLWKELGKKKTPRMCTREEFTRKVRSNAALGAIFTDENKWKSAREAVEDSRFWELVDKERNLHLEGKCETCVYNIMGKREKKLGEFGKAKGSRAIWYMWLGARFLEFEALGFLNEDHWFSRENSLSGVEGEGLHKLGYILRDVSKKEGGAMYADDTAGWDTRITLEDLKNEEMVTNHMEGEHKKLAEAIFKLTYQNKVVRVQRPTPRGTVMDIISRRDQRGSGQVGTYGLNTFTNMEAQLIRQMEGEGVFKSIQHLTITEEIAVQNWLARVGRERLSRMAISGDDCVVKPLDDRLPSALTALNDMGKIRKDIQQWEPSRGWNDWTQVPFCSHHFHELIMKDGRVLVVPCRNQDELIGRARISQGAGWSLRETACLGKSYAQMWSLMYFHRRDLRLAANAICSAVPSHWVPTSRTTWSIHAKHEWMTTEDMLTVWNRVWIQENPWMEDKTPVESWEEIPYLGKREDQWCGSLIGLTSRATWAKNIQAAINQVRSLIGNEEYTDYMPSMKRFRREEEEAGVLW

Q: `O=C1NN(c2ccc(F)c(Cl)c2)C(=O)/C1=C\c1cccc(OC(=O)c2cccs2)c1` was tested. Which inhibition did it give?
A: inconclusive: 59.1%

Q: Which inhibition does the source give for `O=C(NN1C(=O)/C(=C/c2ccc(O)cc2)SC1=S)c1ccccc1O` here?
A: inconclusive: 47.4%
